Assay results from a collection of fitness landscapes (doi:10.1126/science.1257360).
The other results are listed elsewhere or left out.

B1: PhoQ; a variant is named by its letters at X, in order, P23837 (parent)
chain: MKKLLRLFFPLSLRVRFLLATAAVVLVLSLAYGMVALIGYSVSFDKTTFRLLRGESNLFYTLAKWENNKLHVELPENIDKQSPTMTLIYDENGQLLWAQRDVPWLMKMIQPDWLKSNGFHEIEADVNDTSLLLSGDHSIQQQLQEVREDDDDAEMTHSVAVNVYPATSRMPKLTIVVVDTIPVELKSSYMVWSWFIYVLSANLLLVIPLLWVAAWWSLRPIEALAKEVRELEEHNRELLNPATTRELTSLVRNLNRLLKSERERYDKYRTTLTDLTHSLKTPLXXLQXXLRSLRSEKMSVSDAEPVMLEQISRISQQIGYYLHRASMRGGTLLSRELHPVAPLLDNLTSALNKVYQRKGVNISLDISPEISFVGEQNDFVEVMGNVLDNACKYCLEFVEISARQTDEHLYIVVEDDGPGIPLSKREVIFDRGQRVDTLRPGQGVGLAVAREITEQYEGKIVAGESMLGGARMEVIFGRQHSAPKDE

Variants of: B1
Assay: enrichment ratio after two sorts for PhoP signalling (ratio (wild type AVST 3.29)); higher = more functional
Details: with PhoP (E. coli)

Point of comparison: TIAC, enrichment ratio 12.1. Against it:
- LGHH — lower, ≤ 0.25
- NIEI — lower, ≤ 0.25
- DQWT — lower, ≤ 0.25
- QYLQ — lower, ≤ 0.25
- ESPM — lower, ≤ 0.25
- EGIV — lower, ≤ 0.25
- KNYF — lower, ≤ 0.25
- SSFY — lower, 5.08
- PWDG — lower, ≤ 0.25
- LNQV — lower, ≤ 0.25
- ENCD — lower, ≤ 0.25
- WMEG — lower, ≤ 0.25
- RVKW — lower, ≤ 0.25
- TCTN — higher, 22.5
- SQTR — lower, ≤ 0.25
- KVDI — lower, ≤ 0.25
- YAMI — lower, ≤ 0.25
- KSCQ — lower, ≤ 0.25
- YLPK — lower, ≤ 0.25
- NFCQ — lower, ≤ 0.25
- KYME — lower, ≤ 0.25
- MGKS — lower, ≤ 0.25
- MNCI — lower, ≤ 0.25
- PQCN — lower, ≤ 0.25
- RYHH — lower, ≤ 0.25
- SNGI — the same, 12.1
- RTNQ — lower, ≤ 0.25
- PSFT — lower, ≤ 0.25
- LCEH — lower, ≤ 0.25
- WSWK — lower, ≤ 0.25
- VGPS — lower, ≤ 0.25
- TWVQ — lower, ≤ 0.25
- MHYD — lower, ≤ 0.25
- ISSK — lower, ≤ 0.25
- YCMF — lower, ≤ 0.25
- PANV — lower, ≤ 0.25
- RITW — lower, ≤ 0.25
- GLGV — lower, ≤ 0.25
- LEKA — lower, ≤ 0.25
- LYLW — lower, ≤ 0.25
- RCAS — lower, ≤ 0.25
- YKMY — lower, ≤ 0.25
- DEFE — lower, ≤ 0.25
- MMMT — lower, ≤ 0.25
- RWTY — lower, ≤ 0.25
- FETR — lower, ≤ 0.25
- GRHG — lower, ≤ 0.25
- HTKP — lower, ≤ 0.25
- LVCS — lower, ≤ 0.25
- SAFM — lower, 2.73
- REVV — lower, 0.48
- GNLC — lower, 4.14
- KTEV — lower, ≤ 0.25
- GETV — lower, 0.874
- DIEL — lower, ≤ 0.25
- DISY — lower, ≤ 0.25
- FRPM — lower, ≤ 0.25
- EQNN — lower, ≤ 0.25
- LSMF — lower, ≤ 0.25
- TLFV — lower, ≤ 0.25
- QPYP — lower, ≤ 0.25
- RDTG — lower, ≤ 0.25
- FPYI — lower, ≤ 0.25
- LGWM — lower, 2.02
- MVCC — lower, ≤ 0.25
- FWFN — lower, ≤ 0.25
- QQIV — lower, ≤ 0.25
- VRFT — lower, ≤ 0.25
- EEFW — lower, ≤ 0.25
- NAER — lower, ≤ 0.25
- SEDM — lower, ≤ 0.25
- GPYA — lower, ≤ 0.25
- FVCH — lower, ≤ 0.25
- EPYL — lower, ≤ 0.25
- ECTF — lower, ≤ 0.25
- QQTY — lower, ≤ 0.25
- QESV — higher, 29.9
- MCDI — lower, ≤ 0.25
- DTNT — lower, ≤ 0.25
- YSHL — lower, ≤ 0.25
- FRMQ — lower, ≤ 0.25
- GLPK — lower, ≤ 0.25
- IYLL — lower, ≤ 0.25
